Source: the supplement of paper PMC7125110
± gives the standard error. Variants at the floor of the assay are shown more often than the library holds them.

B1: glmS ribozyme (parent)
chain: AUAAAAGCGCCAGAACUACAGAAAUGUAGUUGACGAGGAGGAGGUUUAUCGAAUUUUCGGCGGAUGCCUCCAAA

Experiments:
Conditions in all cases: with glucosamine-6-phosphate
glucosamine-6-phosphate [1] = variants of: B1; test: self-cleavage kobs at 640 uM GlcN6P; higher = faster cleavage; RNA array
Procedure, shortened: (§1)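 E. coli RNA polymerase transcribed barcoded ribozyme variants in situ on sequenced MiSeq chips, which were tracked via a hybridised Cy3 probe at 37 °C. Tiles were imaged over ~14 h after glucosamine-6-phosphate (40 μM to 10 mM) in HEPES/KCl/Mg(OAc)2 buffer was flowed in. Normalised per-tile medians were fit to one- or two-exponential decays for kobs, and kcat and KM came from weighted Michaelis–Menten fits.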

glucosamine-6-phosphate [2] = variants of: B1; test: self-cleavage kobs at 2500 uM GlcN6P; higher = faster cleavage; RNA array
Procedure, shortened: as §1

glucosamine-6-phosphate [3] = variants of: B1; test: self-cleavage kobs at 10000 uM GlcN6P; higher = faster cleavage; RNA array
Procedure, shortened: as §1

glucosamine-6-phosphate [4] = variants of: B1; test: self-cleavage kobs at 160 uM GlcN6P; higher = faster cleavage; RNA array
Procedure, shortened: as §1

Variant | self-cleavage kobs at 640 uM GlcN6P (glucosamine-6-phosphate [1]) [s⁻¹] | self-cleavage kobs at 2500 uM GlcN6P (glucosamine-6-phosphate [2]) [s⁻¹] | self-cleavage kobs at 10000 uM GlcN6P (glucosamine-6-phosphate [3]) [s⁻¹] | self-cleavage kobs at 160 uM GlcN6P (glucosamine-6-phosphate [4]) [s⁻¹]
G37C U46C G63U | < 1e-05 |  |  | 
G37C U49C | < 1e-05 | < 1e-05 | < 1e-05 | 
G37C U65C | < 1e-05 | < 1e-05 |  | < 1e-05
G37U A42C | < 1e-05 | < 1e-05 | < 1e-05 | < 1e-05
G37U A42G A52U | < 1e-05 |  |  | 
G37U C50U G59U G60U | < 1e-05 |  |  | 
G37U G38U G51A C58A | < 1e-05 |  |  | 
G37U U49A U54A | < 1e-05 |  |  | 
G38A G43A A52G | < 1e-05 | < 1e-05 |  | 
G38A U46C U54A G59U | < 1e-05 | < 1e-05 |  | 
G38C A39C G59A | < 1e-05 | < 1e-05 |  | < 1e-05
G38C A48G G66A | < 1e-05 | < 1e-05 |  | 
G38C G43C G44A G63C A64U C70U | < 1e-05 | < 1e-05 |  | 
G38C G60A | < 1e-05 |  | < 1e-05 | < 1e-05
G38C G63C | < 1e-05 | < 1e-05 |  | < 1e-05
G38U A39C C58G | < 1e-05 |  |  | 
G38U A42U U54C A64C | < 1e-05 |  |  | 
G38U A48G C71U | < 1e-05 |  |  | 
G38U C61U | < 1e-05 | < 1e-05 |  | 
G38U G40A A42C U57A | < 1e-05 | < 1e-05 | < 1e-05 | 
G38U G40U A53C C61G A64G C68A | < 1e-05 |  |  | < 1e-05
G38U G41U A52U G66C | < 1e-05 |  |  | 
G38U G43A C71U | < 1e-05 | < 1e-05 |  | 
G38U G51C C67G | < 1e-05 |  |  | 

Variant | self-cleavage kobs at 640 uM GlcN6P (glucosamine-6-phosphate [1]) [s⁻¹] | self-cleavage kobs at 2500 uM GlcN6P (glucosamine-6-phosphate [2]) [s⁻¹] | self-cleavage kobs at 10000 uM GlcN6P (glucosamine-6-phosphate [3]) [s⁻¹] | self-cleavage kobs at 160 uM GlcN6P (glucosamine-6-phosphate [4]) [s⁻¹]
G38U G60U | < 1e-05 |  |  | < 1e-05
G38U U46C G62U G63A | < 1e-05 | < 1e-05 |  | 
G38U U55C | < 1e-05 |  |  | 
G38U U57G | < 1e-05 | < 1e-05 |  | 
A39C A52C C71A | < 1e-05 | < 1e-05 |  | 
A39C G40C A52G | < 1e-05 |  |  | < 1e-05
A39C G43U U47A C70U | < 1e-05 | < 1e-05 |  | 
A39C G62A A64G | < 1e-05 | < 1e-05 | < 1e-05 | < 1e-05
A39C G62C | < 1e-05 | < 1e-05 | < 1e-05 | < 1e-05
A39C G63C C67G | < 1e-05 | < 1e-05 |  | 
A39C U45A C68G | < 1e-05 |  |  | 
A39C U45C | 9.68e-05 ± 1.7e-05 | 0.000214 ± 3.8e-05 | 0.000408 ± 4.5e-05 | 
A39C U55C G60U C67U C68U | < 1e-05 | < 1e-05 | < 1e-05 | 
A39C U57C C71U | < 1e-05 |  |  | 
A39G A42C C58A A64C | < 1e-05 | < 1e-05 |  | 
A39G A42G C50A | < 1e-05 | < 1e-05 |  | 
A39G A48G A52C | < 1e-05 | < 1e-05 |  | 
A39G G60U A64C C68A C71U | < 1e-05 |  |  | 
A39G G62C C71G | < 1e-05 |  |  | 
A39U A64C | 5.07e-05 ± 7e-06 | 9.58e-05 ± 1.3e-05 | 0.00021 ± 1.9e-05 | 
A39U C61G U69G | < 1e-05 | < 1e-05 | < 1e-05 | 
A39U G40A A64G | 0.000775 ± 0.00021 | 0.00738 ± 0.0025 |  | 0.000419 ± 0.00012
A39U G40A U45C A64C | < 1e-05 |  |  | 
A39U G41U G63U | < 1e-05 |  |  | < 1e-05

Variant | self-cleavage kobs at 640 uM GlcN6P (glucosamine-6-phosphate [1]) [s⁻¹] | self-cleavage kobs at 2500 uM GlcN6P (glucosamine-6-phosphate [2]) [s⁻¹] | self-cleavage kobs at 10000 uM GlcN6P (glucosamine-6-phosphate [3]) [s⁻¹] | self-cleavage kobs at 160 uM GlcN6P (glucosamine-6-phosphate [4]) [s⁻¹]
A39U G43C G44A G51U | < 1e-05 | < 1e-05 |  | 
A39U G62A U65A | < 1e-05 | < 1e-05 |  | 
A39U U69G | 4.85e-05 ± 1.5e-05 | 4.76e-05 ± 1.3e-05 | 7.29e-05 ± 1.5e-05 | 
G40A A42U A48U | < 1e-05 |  |  | 
G40A C50G A64G | < 1e-05 | < 1e-05 |  | 
G40A C61U C68G C70G C71G | < 1e-05 |  |  | < 1e-05
G40A G51C | < 1e-05 |  | < 1e-05 | < 1e-05
G40A U47G C50A | < 1e-05 |  |  | 
G40C A52G | 2.38e-05 ± 8.1e-06 | 0.000102 ± 1.5e-05 | 0.000133 ± 1.5e-05 | 
G40C C50U | < 1e-05 |  | < 1e-05 | < 1e-05
G40U C50G U56G G66U | < 1e-05 |  |  | 
G40U G41U C61U | < 1e-05 | < 1e-05 |  | < 1e-05
G41A C61G | < 1e-05 | < 1e-05 | < 1e-05 | < 1e-05
G41A G51A C68G | < 1e-05 |  |  | 
G41C A48U A64C U65A C71G | < 1e-05 |  |  | 
G41C A53U A64U | < 1e-05 | < 1e-05 |  | < 1e-05
G41C C58U U65G | < 1e-05 | < 1e-05 |  | 
G41C U46G U57C | < 1e-05 | < 1e-05 |  | < 1e-05
G41U A52U U57G G59U | < 1e-05 | < 1e-05 |  | 
G41U G43A U49G | < 1e-05 | < 1e-05 |  | < 1e-05
G41U G51A A53G C61U | < 1e-05 | < 1e-05 |  | 
G41U U49G G60U G66C | < 1e-05 | < 1e-05 |  | 
G41U U57A | < 1e-05 | < 1e-05 |  | 
G41U U69G | < 1e-05 | < 1e-05 |  | < 1e-05

Variant | self-cleavage kobs at 640 uM GlcN6P (glucosamine-6-phosphate [1]) [s⁻¹] | self-cleavage kobs at 2500 uM GlcN6P (glucosamine-6-phosphate [2]) [s⁻¹] | self-cleavage kobs at 10000 uM GlcN6P (glucosamine-6-phosphate [3]) [s⁻¹] | self-cleavage kobs at 160 uM GlcN6P (glucosamine-6-phosphate [4]) [s⁻¹]
A42C A48U U65C | < 1e-05 |  |  | 
A42C A52G C67U | < 1e-05 | < 1e-05 |  | < 1e-05
A42C C58U | < 1e-05 |  |  | < 1e-05
A42C G43A | < 1e-05 | < 1e-05 | < 1e-05 | < 1e-05
A42C U47G U57C | < 1e-05 |  |  | 
A42C U55C U65A C67U C68U C70G | < 1e-05 | < 1e-05 |  | 
A42C U65A | < 1e-05 | < 1e-05 | < 1e-05 | 
A42G A48U | 0.000148 ± 4.3e-05 |  | 0.000576 ± 0.00013 | 
A42G G44A U56A G59C C68A | < 1e-05 | < 1e-05 |  | 
A42G U47G C67U | 0.00108 ± 0.00019 | 0.0013 ± 0.00029 |  | 
A42U A52U U56G | < 1e-05 |  |  | 
A42U C50A | < 1e-05 | < 1e-05 |  | 
A42U U47A U54C | 3.85e-05 ± 9.6e-06 |  |  | 
A42U U49C C61U | < 1e-05 |  |  | 
A42U U57A | < 1e-05 | < 1e-05 |  | < 1e-05
G43A G44C G51U G63C C70A | < 1e-05 |  |  | 
G43A U45A C61G | < 1e-05 |  |  | < 1e-05
G43A U46G C70G | < 1e-05 | < 1e-05 |  | 
G43A U54C G63U G66U C71G | < 1e-05 |  |  | 
G43C A48G C71G | < 1e-05 | < 1e-05 |  | < 1e-05
G43C A52C C68A | < 1e-05 |  |  | 
G43C C50A | < 1e-05 | < 1e-05 |  | 
G43C C70U | < 1e-05 |  |  | < 1e-05
G43C C71G | < 1e-05 | < 1e-05 |  | < 1e-05

Variant | self-cleavage kobs at 640 uM GlcN6P (glucosamine-6-phosphate [1]) [s⁻¹] | self-cleavage kobs at 2500 uM GlcN6P (glucosamine-6-phosphate [2]) [s⁻¹] | self-cleavage kobs at 10000 uM GlcN6P (glucosamine-6-phosphate [3]) [s⁻¹] | self-cleavage kobs at 160 uM GlcN6P (glucosamine-6-phosphate [4]) [s⁻¹]
G43C U47G C58G U69A | < 1e-05 |  |  | 
G43C U49A U57G C68G | < 1e-05 |  |  | 
G43U A52C U54C C70A | < 1e-05 | < 1e-05 |  | 
G43U C50G C71U | < 1e-05 | < 1e-05 |  | < 1e-05
G43U G44A G51A G59C G66C | < 1e-05 |  | < 1e-05 | 
G43U U65A | < 1e-05 |  |  | < 1e-05
G44A A48G G51U G66C | < 1e-05 |  |  | 
G44A A53G G63A | < 1e-05 | < 1e-05 |  | 
G44A C58G | < 1e-05 | < 1e-05 |  | 
G44A G59A C67U | < 1e-05 |  |  | < 1e-05
G44A U47G C58U | < 1e-05 | < 1e-05 |  | < 1e-05
G44A U54C | 0.000114 ± 1.7e-05 |  |  | 
G44A U56G C68G | < 1e-05 |  |  | 
G44C A48G C61A U69A | < 1e-05 | < 1e-05 | < 1e-05 | < 1e-05
G44C C58A G62U A64G | < 1e-05 |  |  | 
G44C C68A U69G | < 1e-05 |  |  | 
G44U A52U G60C | < 1e-05 |  |  | 
G44U A53C U57A | < 1e-05 |  |  | 
G44U U45A | 0.000175 ± 3.5e-05 | 0.000478 ± 9.7e-05 | 0.00046 ± 0.00014 | 
U45A C68G C71U | < 1e-05 | < 1e-05 |  | < 1e-05
